Hit rate of the full screen: of about 310,000 compounds, about 2,200 (0.71%) showed an effect of 50% or more. The effect is printed as a negative number. The list shows a part of the results.
The molecules below were run against human ether-à-go-go-related gene (hERG) potassium channel (human, UniProt Q12809) (assay: primary screen, population patch clamp on CHO cells stably expressing hERG).
Sequence of human ether-à-go-go-related gene (hERG) potassium channel (Q12809 whole entry, looked up): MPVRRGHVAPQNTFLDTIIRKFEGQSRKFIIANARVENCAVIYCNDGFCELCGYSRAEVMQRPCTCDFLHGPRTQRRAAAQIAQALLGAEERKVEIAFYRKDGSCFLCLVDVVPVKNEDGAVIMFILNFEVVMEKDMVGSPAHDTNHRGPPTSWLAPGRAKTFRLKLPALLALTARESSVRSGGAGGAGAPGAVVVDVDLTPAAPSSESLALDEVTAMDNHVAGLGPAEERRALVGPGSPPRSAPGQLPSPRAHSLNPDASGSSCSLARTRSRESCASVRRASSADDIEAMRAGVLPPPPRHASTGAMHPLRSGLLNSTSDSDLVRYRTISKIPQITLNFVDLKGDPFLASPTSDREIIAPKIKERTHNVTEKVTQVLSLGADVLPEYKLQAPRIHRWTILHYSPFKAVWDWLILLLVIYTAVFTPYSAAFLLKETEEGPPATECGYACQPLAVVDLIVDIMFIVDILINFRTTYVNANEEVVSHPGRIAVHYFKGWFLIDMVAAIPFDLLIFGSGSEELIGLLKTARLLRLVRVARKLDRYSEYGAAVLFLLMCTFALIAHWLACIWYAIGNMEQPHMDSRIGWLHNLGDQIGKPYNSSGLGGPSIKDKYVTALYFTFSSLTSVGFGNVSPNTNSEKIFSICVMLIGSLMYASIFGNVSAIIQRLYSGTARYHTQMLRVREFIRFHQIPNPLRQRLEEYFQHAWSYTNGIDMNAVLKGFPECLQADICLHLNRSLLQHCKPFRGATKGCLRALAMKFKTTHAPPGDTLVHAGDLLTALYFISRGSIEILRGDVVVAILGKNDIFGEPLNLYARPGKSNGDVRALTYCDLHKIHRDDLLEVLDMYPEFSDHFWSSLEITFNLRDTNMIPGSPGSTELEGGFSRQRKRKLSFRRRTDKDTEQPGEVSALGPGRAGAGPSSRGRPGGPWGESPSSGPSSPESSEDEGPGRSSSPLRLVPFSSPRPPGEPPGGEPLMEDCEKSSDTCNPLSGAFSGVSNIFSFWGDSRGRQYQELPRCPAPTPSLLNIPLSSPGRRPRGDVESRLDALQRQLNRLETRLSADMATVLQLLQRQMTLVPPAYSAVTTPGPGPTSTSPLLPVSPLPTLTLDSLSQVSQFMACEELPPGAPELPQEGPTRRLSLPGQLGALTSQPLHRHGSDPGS

Point of comparison: `Cc1cc2nc(C)n(CCCN)c2cc1C.Cl`, “hERG current change (%, negative = inhibition) at 1uM” value 10.9%. Against it:
- Cc1c(NC(=O)CSc2nc(N)cc(N)n2)c(=O)n(-c2ccccc2)n1C — higher, 14.6%
- O=C1NC(=O)C(=Cc2ccc3ccccc3c2)C(=O)N1 — higher, 14%
- O=C(O)C(=O)O.O=[N+]([O-])c1ccc(S(=O)(=O)N2CCN(Cc3c[nH]c4ccccc34)CC2)cc1 — lower, -10.1%
- Cc1c2cnn(CC(=O)NCCN3CCOCC3)c(=O)c2c(C)n1Cc1ccccc1 — lower, 9.26%
- CCOc1cc(C(=O)OCC(=O)N(C)c2ccccc2)cc(OCC)c1OCC — lower, 9.29%
- O=C(Nc1ccc(N2CCOCC2)c(Cl)c1)c1cccc(F)c1 — lower, 1.27%
- O=C(COc1cc(F)ccc1[N+](=O)[O-])Nc1cccc(S(=O)(=O)NC2=NCCC2)c1 — higher, 12.1%
- COc1ccc(CNC(=O)c2coc(=O)c3ccccc23)c(OC)c1 — lower, -7.38%
- CC(C)(C)NC(=O)CCc1ncc(C(F)(F)F)cc1Cl — lower, 5.5%
- Cc1ccc(C(CNC(=O)c2ccco2)N2CCN(C)CC2)cc1 (centres unmarked) — lower, 9.31%
- Cc1c(NC(=O)C(C)OC(=O)C(NC(=O)c2ccco2)C(C)C)c(=O)n(-c2ccccc2)n1C (centres unmarked) — lower, -16%
- Cc1ccc(NC(=O)CSc2nc3ccccc3nc2N2CCOCC2)cc1 — lower, 4.56%
- O=[N+]([O-])c1ccc(CP(=O)(c2ccccc2)c2ccccc2)cc1 — lower, 8.71%
- COc1ccc2nc(SCC(=O)NC3CCCCC3)[nH]c2c1 — higher, 12%
- COc1ccc(CCNC(=O)Cn2cnc3c2c(=O)n(C)c(=O)n3C)cc1OC — lower, 8.26%
- CC1CCN(C(C(=O)Nc2ccc3c(c2)OCO3)c2ccccc2)CC1 (centres unmarked) — lower, 5.73%
- COc1ccc(-n2c(=O)[nH]c3ccccc3c2=O)cc1 — higher, 13.5%
- O=C(CCc1c[nH]c2ccccc12)N1CCN(c2ccc(O)cc2)CC1 — lower, 4.41%
- COc1cc([N+](=O)[O-])cc(/C=N/NC(=O)c2cccnc2)c1O — lower, 9.72%
- CC(C)(C)OC(=O)N1CCCC(C(=O)CC#N)C1 (centres unmarked) — lower, 10.1%
- COc1ccc(OC)c(-c2cc(C(=O)Nc3cccc(Cl)c3)no2)c1 — lower, 2.87%
- COc1cc(OC)c(C(=O)OCCCOC(=O)c2cc(OC)c(OC)cc2OC)cc1OC — lower, 2.46%
- CCN(CC)CCCNC(=O)C1CCC(=O)N(c2ccc(OC)cc2)C1c1ccc(F)cc1 (centres unmarked) — lower, 10.3%
- O=C(CSC1CC(=O)N(c2ccc(C(=O)O)cc2)C1=O)Nc1ccc(Cl)cc1 (centres unmarked) — lower, 7.5%
- CC(C)(C)c1cc(NC(=O)CSc2nnc(N)s2)n(-c2ccccc2)n1 — lower, -0.657%
- CSCCC(NC(=O)c1ccco1)C(=O)Nc1ccc(C)c(S(=O)(=O)N2CCOCC2)c1 (centres unmarked) — lower, 5.26%
- CC(C)OC(=O)Cn1nnc2c(cnn2-c2ccccc2)c1=O — lower, 8.24%
- NC(=O)c1ccsc1NC(=O)CSc1nc2ccccc2c(=O)n1CCCO — lower, 2.67%
- CCN(CC)S(=O)(=O)c1cc(C(=O)Nc2cccnc2)ccc1Cl — lower, -40.3%
- CN(c1ccc(C(=O)N2CCCCC2)cc1)S(=O)(=O)c1ccccc1 — lower, 4.95%
- Cc1nn(C)c(C)c1/C=C(\C#N)C(N)=O — lower, 6.32%
- CCCCNC(=O)CSc1nc2n[nH]c(C)c2c(=N)n1-c1cccc(Cl)c1C — lower, -1.8%
- COc1cc(C(=O)Nc2ccc(S(=O)(=O)N(C)c3ccccc3)cc2)cc(OC)c1OC — lower, 7.74%
- Cc1nc(NCC(c2ccccc2)N(C)C)c2c(C)c(C)sc2n1 (centres unmarked) — lower, -36%
- CC(=O)Nc1cccc(NC(=O)CSc2ccc3nnc(CCNC(=O)c4ccccc4)n3n2)c1 — lower, 7.88%
- CC1Cc2nc(SCC(=O)NC3CCCCC3)n(C)c(=O)c2S1 (centres unmarked) — lower, 4.05%
- CCCCOC(=O)Nc1ccc(N2CCOCC2)cc1 — lower, 5.16%
- NS(=O)(=O)c1ccc(CNS(=O)(=O)c2cc(C(=O)O)ccc2Cl)cc1 — higher, 15.3%
- Cc1cc(C)cc(NC(=O)C2CCCN(c3ncccn3)C2)c1 (centres unmarked) — lower, 6.6%
- COc1cc(OC)cc(OCC(O)Cn2cnc(-c3ccccc3)c2)c1 (centres unmarked) — lower, 6.31%
- COC(=O)c1ccc(NC(=O)Nc2ccc3c(c2)nc(C)n3C)cc1 — lower, 6.26%
- CCNC(=S)Nn1cnc2ccccc21 — lower, -2.17%
- Cc1ccc(NC(=O)c2sc(Cl)nc2-c2ccccc2)cc1C — lower, -3.34%
- O=C1CCCc2c1nn(-c1ccccc1)[n+]2[O-] — lower, 6.47%
- O=C1CSC(c2ccccc2[N+](=O)[O-])N1c1ccc(O)cc1 (centres unmarked) — higher, 13.2%
- O=C(CN1C(=O)CS/C1=C\c1nc(-c2ccc(Cl)cc2)cs1)Nc1cccnc1Cl — higher, 13.2%
- Cc1c(C(=O)N2CCCCC2)sc(NC(=O)c2ccco2)c1C#N — lower, 10.8%
- Cc1ccc(C(=O)N(CN2CCCC2=O)c2ccccc2)cc1 — lower, 7.47%
- COc1ccc(C2C=C(c3ccc(Br)cc3)Nc3nc(N4C(=O)CCC4=O)nn32)cc1 (centres unmarked) — lower, 5.92%
- COc1ccc(-c2csc(NC(=O)c3cc(=O)c4ccccc4o3)n2)cc1OC — higher, 11.4%
- Cc1ccc(NC(=O)N2CCc3ccccc3C2)cc1 — lower, 8.48%
- CCCc1[nH]nc2c1C(c1ccc(O)cc1OCC)C(C#N)=C(N)O2 (centres unmarked) — lower, 10.7%
- COc1ccccc1CNC(=O)CN1CCN(S(=O)(=O)c2cccs2)CC1 — higher, 20.9%
- COC(=O)c1ccc(CNC(=O)CCc2c[nH]c3ccccc23)cc1 — higher, 11.5%
- Cc1ccccc1C(=O)NC(=S)NCC1CCCO1 (centres unmarked) — lower, 6.07%
- CCN(CC)S(=O)(=O)c1cccc(NC(=O)CCNC(=O)NC23CC4CC(CC(C4)C2)C3)c1 — lower, 5.69%
- CC(=O)NCC(=O)OCC(=O)c1ccccc1 — lower, 3.53%
- COCCN(C(=O)c1ccccc1F)c1nc(-c2ccc(OC)cc2)cs1 — lower, 4.47%
- COc1ccc([C@@H]2CC=C(C(=O)O)CN2S(=O)(=O)c2ccc(Cl)cc2)cc1 — lower, 2.93%
- O=C(COc1ccc2oc(-c3ccco3)cc(=O)c2c1)N1CCCCC1 — lower, 3.1%
- O=C(CSc1nc2ccccc2o1)N/N=C/c1ccc(C(=O)O)cc1 — higher, 28.4%
- CC(C)(C)OC(=O)NCc1n[nH]c(=S)n1C1CC1 — higher, 13.7%
- CC(=O)NCCC(=O)Nc1nc(-c2cccs2)c(-c2cccs2)s1 — lower, -1.33%
- CC1(C)CC(=O)C(C=Nc2ccc(Cl)cn2)=C(O)C1 — lower, 9.04%
- C=CCn1c(SCc2c(C)noc2C)nc2ccccc2c1=O — lower, 5.14%
- CC(=O)NC1(c2nnnn2CCOC(=O)Nc2ccc(Cl)cc2)CCCCC1 — lower, -9.92%
- COc1ccc(CC(=O)NNC(=O)c2ccco2)cc1 — lower, 9.94%
- CC(=O)Cc1c[nH]c2ccccc12 — lower, 9.66%
- CN1C(=O)/C(=C\c2cc(Br)cs2)c2ccccc21 — higher, 12.7%
- CC(C)OC(=O)CSc1nnc(SCc2cccc3ccccc23)s1 — lower, 8.14%
- O=C(NCCCn1ccnc1)c1ccccc1Cl — higher, 13.5%
- N=c1sccn1CC(=O)NC(=O)NC1CCCC1 — lower, 1.39%
- CCCN(CCC)C(=O)Cc1coc2ccc3ccccc3c12 — lower, 8.75%
- CC(=O)N1CCN=C1SCc1ccc(Cl)cc1 — lower, 7.81%
- CC(C)C1N=C2c3ccccc3N=C(SCC(=O)NCCc3ccc(S(N)(=O)=O)cc3)N2C1=O (centres unmarked) — higher, 14.2%
- Cc1ccc2sc(N(CCCN(C)C)C(=O)c3ccc(S(=O)(=O)N(C)Cc4ccccc4)cc3)nc2c1C.Cl — lower, -1.03%
- c1ccc(OCCN2CCN(Cc3nc(-c4ccc5c(c4)OCO5)no3)CC2)cc1 — lower, -10.5%
- CCOc1cc(C#N)c(NC(=O)c2cccnc2)cc1OCC — lower, 7.76%
- c1cncc(-c2nc(N3CCOCC3)c3c4c(sc3n2)CCC4)c1 — lower, 4.13%
- CC1(c2ccccc2Cl)NC(=O)N(CC(=O)NCc2ccco2)C1=O (centres unmarked) — lower, 7.76%
- CCN(CC)S(=O)(=O)c1ccc(C)c(NC(=O)Cc2ccc(S(=O)(=O)N3CCOCC3)s2)c1 — lower, 3.53%
- Cc1nc2c(-c3ccc(F)cc3)cnn2c2c1CCC2 — lower, 4.99%
- Cc1cccc(NN=C2c3ccccc3-c3ccccc32)c1 — lower, 5.82%
- COc1cc(OC)c(C2=NOC(C(=O)Nc3ccc4c(c3)OCO4)C2)cc1Cl (centres unmarked) — lower, 3.04%
- Cc1ccc(OCC(=O)N/N=C\c2ccco2)c(C)c1 — lower, -1.08%
- Cc1ccc(-c2nc(C)sc2CC(=O)Nc2nnc(C)s2)cc1 — lower, 7.08%
- O=C(NCCC1CCCCN1S(=O)(=O)c1cccs1)C(=O)Nc1ccc(F)cc1 (centres unmarked) — lower, 8.29%
- Cc1ccc(N2C(=O)C(NC(=O)c3ccccc3)(C(F)(F)F)C3=C2CC(C)(C)CC3=O)cc1 (centres unmarked) — higher, 11.7%
